{"source": "paper PMC12136788", "binders": {"B1": {"name": "chrX:20248820:20248821:+_ENSMUSG00000001924_ENSMUST00000001989|mus_mus|mus_mus_mus_hu_True|48_88 (ssRNA)", "RNA": "GGGAGUUCUACAGUCCGACGAUCGGCGAAGUCCGUCACCACAAAGUCAGGCUCUACCAGUGAGGCCACCAAGGAUUUAAAGCUAAUCUUUUUCGGUACUUUGACCUGACUGACGAUGCCUCCACGGAUGUAGUCGGAGAAGUUCAACAGAGGAUUGAGCAUCA"}, "B2": {"name": "chr6:41757443:41757444:+_ENSG00000214736_ENST00000398881|hu_mus|hu_hu_hu_mus_False|1_18 (ssRNA)", "RNA": "GGGAGUUCUACAGUCCGACGAUCGAACCGUGCAGAGGCAACAUCUCAGCCGACACUGGGGGAUGGGGGGGCAGUGGGGGGGGGUUCAGGCAAGGAGAGGGAGUCAACUUCAGCUGCUCAAACUUCAGGAUCUUGUGGGGCACACAACAGAGGAUUGAGCAUCA"}, "B3": {"name": "chr1:58468927:58468928:-_ENSMUSG00000026034_ENSMUST00000148330|mus_mus|mus_mus_mus_hu_False|38_38 (ssRNA)", "RNA": "GGGAGUUCUACAGUCCGACGAUCAAUUACUGAAAAAGAUGUUCAUUACCUUAGCUAUGUACUUAAUGAACCAAAUUACCCAAACAAAAUAAACAUGUUUACAAAUUAAUGUUAAGAAUUUACAAAGCUGUACAAAAUAACUUACAACAGAGGAUUGAGCAUCA"}, "B4": {"name": "chr9:35104861:35104862:-_ENSG00000005238_ENST00000378566|hu_hu|FALSE|FALSE (ssRNA)", "RNA": "GGGAGUUCUACAGUCCGACGAUCAGGAGUGAUGCCAAUUAUCAGGUGUGGGAGGUUACCAAGGCAAUCCAAUUUGAAUAAAUUAUAAAUUAAAAAUAAAUAAAAUAACAAGUGGCCCCUGCCCAGGACAGGGAGGCAACGCUGCAACAGAGGAUUGAGCAUCA"}, "B5": {"name": "chr2:148693158:148693159:-_ENSG00000115947_ENST00000542387|hu_mus|FALSE|FALSE (ssRNA)", "RNA": "GGGAGUUCUACAGUCCGACGAUCUGCCCACUGCCUAACAUCUGUAGGGCAGUUGGAGUAUUUCUGUAGAGCAUUCAUAAUUUGAGUAUUAUCCAAAAGUAGUUUCACUAGCUGGUAUUCUCUCUGAGAAUUUACUGAAGUUCUCAACAGAGGAUUGAGCAUCA"}, "B6": {"name": "52911635_52912015_3817_CDS_ENSG00000134744_ENST00000257177|human|control|control (ssRNA)", "RNA": "GGGAGUUCUACAGUCCGACGAUCGGAAACUCCAGCACCAAGGUUAUGAUUCAAGUCAAAAGGGUCUUCAAUUGCAAUGCACUUGGAAGUCCACUGCUUCUCAAAAGUUGUCAACAGCUUUUUCUGCCGAAUGCUAAUUACAUACAACAGAGGAUUGAGCAUCA"}, "B7": {"name": "chrX:147030410:147030411:+_ENSG00000102081_ENST00000218200|hu_hu|FALSE|FALSE (ssRNA)", "RNA": "GGGAGUUCUACAGUCCGACGAUCUUUCAUGCCCUGUGCCAUCUUGCCUACUAUUUGUCUUUGGCCUAACAAAGUUUUCUAAUAUGGAAUAAGAAUUACGGAAAUGGUAUAGGAAAUAUAACUUCAGAAUUAUGCAGUUUAGGGCAACAGAGGAUUGAGCAUCA"}, "B8": {"name": "chr2:202488911:202488912:-_ENSG00000155755_ENST00000286196|hu_mus|hu_hu_hu_mus_False|88_88 (ssRNA)", "RNA": "GGGAGUUCUACAGUCCGACGAUCAUUGAAACAUUUUUCAUAAUCUCAGAGAUGUUUUCAGCAUUAUGUAACAAAAGCUCAAUUGUAAAUACAUGUAUCUUAUAAAAAUACACUUAAAAACACGAGUGGGGAGCGCAGGCGCCACAACAGAGGAUUGAGCAUCA"}, "B9": {"name": "chr14:89307221:89307222:+_ENSG00000165533_ENST00000346301|hu_mus|hu_hu_hu_mus_False|78_78 (ssRNA)", "RNA": "GGGAGUUCUACAGUCCGACGAUCUCCUGUUUGGUUAGUGCCAGGGAGCUUCAAAGACGUUCCAGGGCGUGGGACCUGAGCAAUAGCAUUUUCAUCCAGGAUCAUUUCAGCAAUUCCUUCCUGGUCCACAUCAAUUUCAUCUAUCAACAGAGGAUUGAGCAUCA"}, "B10": {"name": "chr13:13450785:13450786:-_ENSMUSG00000021306_ENSMUST00000021738|mus_mus|motif|central (ssRNA)", "RNA": "GGGAGUUCUACAGUCCGACGAUCGGCCAGAAGUAUUUAUUGUUAAUACUCUGUGGGGACCUCUUGGCUUGUAGCCUGACGGUAGCAAGCACUGGCUGAGUCAAAGAAGGCACAGUCCUUGCAUCCUACUGAGGUACUGAGGUACAACAGAGGAUUGAGCAUCA"}, "B11": {"name": "73932000_73932120_1381_3pUTR_ENSG00000171617_ENST00000302351|human|control|control (ssRNA)", "RNA": "GGGAGUUCUACAGUCCGACGAUCAGUCAAGCAGCAGCUCCAAGACUUCUGGGUGGAUGGAAUUGUCAAAGUUGACCUCACUGUCCUGGCUCUCUUUCAGGCCACCACUGAACAUGGCCUCAAAGUAGCGACUGCAUGCAGCCACAACAGAGGAUUGAGCAUCA"}, "B12": {"name": "chr2:216225781:216225782:-_ENSG00000115414_ENST00000323926|hu_mus|FALSE|FALSE (ssRNA)", "RNA": "GGGAGUUCUACAGUCCGACGAUCAAUACUGGGAAAAAUUGAUAAAUAACAAACAGGUAAGAGAAAGGUAUUUCUAGGCAAUCUGAAUUGUUGGGACAAAGUGAGUCCUGUGGGAGGGGUGUUUGAACACACAGCCACAGGCCACAACAGAGGAUUGAGCAUCA"}, "B13": {"name": "chr3:101264221:101264222:+_ENSMUSG00000042035_ENSMUST00000043983|mus_hu|FALSE|FALSE (ssRNA)", "RNA": "GGGAGUUCUACAGUCCGACGAUCAAAUCUGUGAGUAGAUGUGGCACCUGGAGCUACUCACUACAUUACUAAAAACAGAAACAAGAAAUCUAUAAUGGCAGGAUCACAACAUUUGCGCGCAAAUAGCUAACCAACCAAGACUGCCAACAGAGGAUUGAGCAUCA"}, "B14": {"name": "chr5:122941739:122941740:-_ENSMUSG00000029467_ENSMUST00000031423|mus_mus|FALSE|FALSE (ssRNA)", "RNA": "GGGAGUUCUACAGUCCGACGAUCUCUUUCCUGCCACACACCCACGAUUGCAUUGGCUACCAAGAUAAGCAGAAUUACAAACGGCUCUACAAAGGCUGUAAUCGUUUCUUCCCCUUCCUCGAACCAAGCCAAAACGAAAGAUAUCAACAGAGGAUUGAGCAUCA"}, "B15": {"name": "chr13:6597965:6597966:-_ENSMUSG00000021196_ENSMUST00000144053|mus_mus|motif|central (ssRNA)", "RNA": "GGGAGUUCUACAGUCCGACGAUCUCAUUCUCUCAUAUUACCACUGGCUCAAAUCCUCCAAUGAUCAGAAGGGCAUUGAUACGGUGGGAAUGCAUCUGCUCUGCGAUCUUCUCCAAGUACUUUCCAGGUAGGGUGCGUUUUGUCCAACAGAGGAUUGAGCAUCA"}, "B16": {"name": "chr3:150289932:150289933:+_ENSG00000144895_ENST00000460851|hu_hu|hu_hu_hu_mus_False|8_8 (ssRNA)", "RNA": "GGGAGUUCUACAGUCCGACGAUCCUUGUAGUUUUUAACAUCCCAUACUUCCAUUUGUCCUCGAAGAUUUCCAAAUCCAGCCAGCACUAAUAUAUGUCCAUGAGGGCUAUAGAAGGCUGCGUUGCGAGGACCAGUUCCAAAGUCCAACAGAGGAUUGAGCAUCA"}, "B17": {"name": "chr11:23189859:23189860:+_ENSMUSG00000020290_ENSMUST00000020538|mus_mus|FALSE|FALSE (ssRNA)", "RNA": "GGGAGUUCUACAGUCCGACGAUCUUGAGGUAUUUCAGCUGUUAUAUGUCCACCUAAUUUGUUGACAAUAAUGGCCAUAGUACUAAGCACUUCUGGUUCUCUAGCAGCUGGUACAUUUCUCUGGUAAUCAAUAAGAACUGCAUCCAACAGAGGAUUGAGCAUCA"}, "B18": {"name": "chr17:45757422:45757423:+_ENSG00000108424_ENST00000290158|hu_mus|motif|central (ssRNA)", "RNA": "GGGAGUUCUACAGUCCGACGAUCUACAUCCUUCCCGAAGGCUGUACACAAGUCCCCUAUCAGACCAGCAGCACAGGCGGCCACUCCGUCCGUAUGAUCCUCAUCUCCAGCAAUGUGAUCAAUAAAAGACAAAAUAAAUUCUACCAACAGAGGAUUGAGCAUCA"}, "B19": {"name": "chr2:60072956:60072957:+_ENSMUSG00000026977_ENSMUST00000102748|mus_mus|motif|central (ssRNA)", "RNA": "GGGAGUUCUACAGUCCGACGAUCUGCACUUUUAGCUUUAUCAUUUUUCCCAUCAGUUGAAUUCCAACCAGAAGGAAUAAUAUCGGCAGUAAUCAUGACAUUGUCAGCCAGAUUACUGCCGAGUGCUGGUGGGACUGCAAACCGCAACAGAGGAUUGAGCAUCA"}, "B20": {"name": "chr3:179287964:179287965:+_ENSG00000136518_ENST00000429709|hu_hu|hu_hu_hu_mus_True|38_48 (ssRNA)", "RNA": "GGGAGUUCUACAGUCCGACGAUCCUUGAGUGGUGAGAUGGCCUCCAUGUUCUCCCUGGGCACGCGGAGGGCAUUGGUGUCUAUGUAGUAGGUGGGACCGCCUUGUUUGCCUUUGUCACCAUCAAUCUCCAUCAUUGUACUUCCCAACAGAGGAUUGAGCAUCA"}, "B21": {"name": "chr3:10015032:10015033:+_ENSMUSG00000027533_ENSMUST00000029046|mus_mus|mus_mus_mus_hu_True|38_98 (ssRNA)", "RNA": "GGGAGUUCUACAGUCCGACGAUCGUUUUUACCAUCACACGUAAUGAUACAAUCUGGCUUGGCCAUUGCGCCCAUUUUUCGCAAAGCUAUUCCCACUCCUAGCUCUUUCAUGUAUUCAUCAAAGCCUUUGCUGUCCACCAGGCGCAACAGAGGAUUGAGCAUCA"}, "B22": {"name": "179620753_179621485_1811_3pUTR_ENSMUSG00000000305_ENSMUST00000000314|mouse|control|control (ssRNA)", "RNA": "GGGAGUUCUACAGUCCGACGAUCGAUCUGCCCAUUGGAUGUGUUGAUGUGCAGCCAGUUGGCGGGAUCAGACAGUUUGGAGUACCUCACGGCUUGCUGCAUGAACCGGUCAGGGUCCACUGCAGAAAAAGUGGUGAGUGCUGUCAACAGAGGAUUGAGCAUCA"}}, "note": "The other results are listed elsewhere or left out."}
{"target": "T1, UNK ZnF1-3 (human, UniProt Q9C0B0 31-174)", "T1 sequence": "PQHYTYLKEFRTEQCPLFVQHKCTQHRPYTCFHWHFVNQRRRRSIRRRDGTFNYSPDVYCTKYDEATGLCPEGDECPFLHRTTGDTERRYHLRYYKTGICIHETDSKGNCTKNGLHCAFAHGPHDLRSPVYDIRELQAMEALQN", "assay": "nsRBNS (natural sequence RNA bind-n-seq); RBNS binding buffer (assumed for nsRBNS): 25 mM Tris pH 7.5, 150 mM KCl, 3 mM MgCl2, 0.01% Triton X-100, 500 ug/ml BSA, 20 U/ml SUPERase-In, 4 C; UNK is unkempt and MSI1 is Musashi-1; names of the RNAs are library labels; protein concentration not given here; high values mean tight binding", "units": {"binding signal": "enrichment R"}}
{"binder": "B1", "binding signal": 0.971}
{"binder": "B2", "binding signal": 2.56}
{"binder": "B3", "binding signal": 0.966}
{"binder": "B4", "binding signal": 2.48}
{"binder": "B5", "binding signal": 1.15}
{"binder": "B6", "binding signal": 0.808}
{"binder": "B7", "binding signal": 1.72}
{"binder": "B8", "binding signal": 0.632}
{"binder": "B9", "binding signal": 0.861}
{"binder": "B10", "binding signal": 0.743}
{"binder": "B11", "binding signal": 1.28}
{"binder": "B12", "binding signal": 1.01}
{"binder": "B13", "binding signal": 1.67}
{"binder": "B14", "binding signal": 1.38}
{"binder": "B15", "binding signal": 0.778}
{"binder": "B16", "binding signal": 0.885}
{"binder": "B17", "binding signal": 0.678}
{"binder": "B18", "binding signal": 1.3}
{"binder": "B19", "binding signal": 0.365}
{"binder": "B20", "binding signal": 0.526}
{"binder": "B21", "binding signal": 0.755}
{"binder": "B22", "binding signal": 0.608}
